In the RNAGym collection of RNA variant scans (doi:10.1093/nar/gkz1192) one finds self-cleavage data, which are given here for 34 variants.

The source gives no read counts; variants with many changes may rest on few reads.

B1: CPEB3 Ribozyme (parent)
chain: UAACAGGGGGCCACAGCAGAAGCGUUCACGUCGCAGCCCCUGUCAGAUUCUGGUGAAUCUGCGAAUUCUGCUGUAUAUCUC

In the series the parent is B1. Put plainly: self-cleavage, relative activity (ratio to wild type); higher = more cleavage; in vitro, sequencing. The method, boiled down:
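Relative activity compares each variant's cleaved/total read fraction with that of the unmutated ribozyme. To get these fractions, barcoded CPEB3 ribozyme libraries from rounds of error-prone PCR were transcribed with T7 RNA polymerase for 5 hours at 37°C and then given 15 min of DNase I treatment before EDTA was added. The RNAs were reverse transcribed with template switching and sequenced on Illumina, and DNA sequencing linked barcodes to variants. A minimum of 5 reads applied, and three batches were averaged.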
UAACAGGGGGCCACAGCAGAAGCGUUCACGUCGCAGCACCAGUCAGAUUCUGGUGAAUCUGCGAAUUCUGCUGUAUACCUC [C38A U41A U78C]: the self-cleavage was 0.19.

With UAACAGGGGGCCACAGCAGAAGCGUUCACGUCGCAGCUGCAGUCAGAUUCUGGUGAAUCUGCGAAUUCUGCAGUUUAUCUC [C38U C39G U41A U72A A75U], the self-cleavage was found to be 0.07.

As for UAACAGGGGGCCACAGCAGAAGCGUUCACGUCGCAGCGCCUGUCAGAUCCUGGUGAAUCUGCAAAUUCUGCUCUAUAUCUC [C38G U49C G63A G73C], the self-cleavage was 0.06.

Take UAACAGGGGGCCACAGCAGAAGCGUUCACGUCGCAGCUCCUGUCAGAUUCUGGUGGAUCUGCGAAUCCUGCUGCAAAUCUC [C38U A56G U67C U74C U76A]: the self-cleavage stood at 0.15.

Take UAACAGGGGGCCACAGCAGAAGCGUUCACGUCGCAGCACCUGCCAGACUCUGGUGAAUCCGCGAAUUCUGCUGUAUAACUC [C38A U43C U48C U60C U78A]: the self-cleavage stood at 0.08.

Consider UAACAGGGGGCCACAGCAGAAGCGUUCACGUCGCAGCUCCUGUCGGAUUCUGGUGAAUCUGCGAAUUCUGCUGUAUACCUC [C38U A45G U78C], for which the self-cleavage was 0.47.

Consider UAACAGGGGGCCACAGCAGAAGCGUUCACGUCGCAGCGCCUGUCAGAUUCUGGUGAAUCUGCGAAUCCUUCUGUAUAUCUC [C38G U67C G70U], for which the self-cleavage was 0.07.

Regarding UAACAGGGGGCCACAGCAGAAGCGUUCACGUCGCAGCACCUGUUAGAUUCUGGUGAAUCUGCGAAUUUUGCUGUAUAUCUC [C38A C44U C68U], the self-cleavage came to 0.08.

For the variant UAACAGGGGGCCACAGCAGAAGCGUUCACGUCGCAGCUCCUGUCUGAUUCUGGAGAAUCUGCGAAUCCUGCUGUAUAUCCC [C38U A45U U54A U67C U80C], the self-cleavage was found to be 0.12.

Consider UAACAGGGGGCCACAGCAGAAGCGUUCACGUCGCAGCUCCUGUCAGAUUCUGGUGAAUCCGCGGAUUCUGCUGUAUAUCUC [C38U U60C A64G], for which the self-cleavage was found to be 0.2.

In the case of UAACAGGGGGCCACAGCAGAAGCGUUCACGUCGCAGCUCCUGCCAGAUUCUGGUGAAUCCGCGAAUUCUGCUGUACAUCUC [C38U U43C U60C U76C], the self-cleavage amounted to 0.14.

For the variant UAACAGGGGGCCACAGCAGAAGCGUUCACGUCGCAGCACCUGUCAGAUUCUGGUGAAUCUGCGAAUUCCGCUGUAUAUCCC [C38A U69C U80C], the self-cleavage was found to be 0.13.

Turning to UAACAGGGGGCCACAGCAGAAGCGUUCACGUCGCAGCACCUGUCAGAUUCUGGUGAAUCUGGGAAUUCUGCUGUACAUCUA [C38A C62G U76C C81A], the self-cleavage came out at 0.08.

On to UAACAGGGGGCCACAGCAGAAGCGUUCACGUCGCAGCUCCUGUCAGACUCUGGUGAGUCUGCGAAUUCUGCUGUAUAUCUC [C38U U48C A57G], for which the self-cleavage is 1.15.

Regarding UAACAGGGGGCCACAGCAGAAGCGUUCACGUCGCAGCUCCUGUCAGAUUCAGGUGAAUCUGCGAAUUCUGCUGUAUAUCCC [C38U U51A U80C], the self-cleavage amounted to 0.26.

For UAACAGGGGGCCACAGCAGAAGCGUUCACGUCGCAGCUCCUGUCAGAUUCUGGUGAAUCUGCGAAUUCGGCUGUAAAUCUC [C38U U69G U76A], the self-cleavage is 0.5.

For the variant UAACAGGGGGCCACAGCAGAAGCGUUCACGUCGCAGUCCCUGUCAGAUUCUGGAGAAUCUGCGAAUUCUGCUGUAUAUCCC [C37U U54A U80C], the self-cleavage was determined as 0.84.

Turning to UAACAGGGGGCCACAGCAGAAGCGUUCACGUCGCAGUCCCUGUCAGAUUCUGGCGAAUCUGCGAAUACUGCUGUAUAUCUC [C37U U54C U67A], the self-cleavage stood at 0.18.

With UAACAGGGGGCCACAGCAGAAGCGUUCACGUCGCAGCACCUGUCAGAUUAUGGUGAAUCUGCGAAUCUUGCUGUAUAUCCC [C38A C50A U67C C68U U80C], the self-cleavage is 0.18.

Regarding UAACAGGGGGCCACAGCAGAAGCGUUCACGUCGCAGCUCCUGUCAGAUUCUGGUGAAUCUGCGAACUCUGCUGUAUUUCUC [C38U U66C A77U], the self-cleavage was found to be 0.13.

Turning to UAACAGGGGGCCACAGCAGAAGCGUUCACGUCGCAGCUCCUGUCAGAUUCUGGUGACUCUGCGUAUUCUGCUGUACAUCUC [C38U A57C A64U U76C], the self-cleavage amounted to 0.06.

Regarding UAACAGGGGGCCACAGCAGAAGCGUUCACGUCGCAGCUCCUGUCAGAUUCUGGUGAGUCUGCGGAUUCUGCUGUAUAUCUC [C38U A57G A64G], the self-cleavage was found to be 0.51.

For UAACAGGGGGCCACAGCAGAAGCGUUCACGUCGCAGCCACUGUCGGAUUCUGGAGAAUCUGCGAAUUCUGCUGAAUAUCUC [C39A A45G U54A U74A], the self-cleavage came out at 0.19.

Regarding UAACAGGGGGCCACAGCAGAAGCGUUCACGUCGCAGCUCCCGCCAGAUUCUGGUGAAUCCGCGAAUUCUGCCGUAUAUCUC [C38U U41C U43C U60C U72C], the self-cleavage turned out to be 0.09.

Consider UAACAGGGGGCCACAGCAGAAGCGUUCACGUCGCAGCCAAUUUCAGAUUCUGGUGAAUCUGCGAAUUCUGCUGUAUAUCUC [C39A C40A G42U], for which the self-cleavage was determined as 0.19.

Take UAACAGGGGGCCACAGCAGAAGCGUUCACGUCGCAGCUCUUGUCAGAUUCUGGUGAAUCUGCGGAUCCUGCAGUAUUUCUC [C38U C40U A64G U67C U72A A77U]: the self-cleavage came to 0.05.

As to UAACAGGGGGCCACAGCAGAAGCGUUCACGUCGCAGCUCCAGUCAGACUCUGGUGAAUCUGCGAACUCUGCUGUAUAUCUC [C38U U41A U48C U66C], the self-cleavage is 0.14.

Regarding UAACAGGGGGCCACAGCAGAAGCGUUCACGUCGCAGCUCCUGUCUGAUUCUGGUGAAUCUGCGAACUCUGCUGUUUAUCUC [C38U A45U U66C A75U], the self-cleavage was determined as 0.15.

As for UAACAGGGGGCCACAGCAGAAGCGUUCACGUCGCAGCUCCAGUCAGAUUCUGGUGGAUCUGCGAAUUCUGCUGUAUAUCUC [C38U U41A A56G], the self-cleavage is 0.19.

With UAACAGGGGGCCACAGCAGAAGCGUUCACGUCGCAGUCCCUGUCAGAUUCUGGUGAAUCUGCGAAUUCUGCAGUUUAUCUC [C37U U72A A75U], the self-cleavage came out at 0.55.

Regarding UAACAGGGGGCCACAGCAGAAGCGUUCACGUCGCAGCACCUGUCAGAUUCUGGUGAAUCUGCGGAUUGAGCUGUAUAUCUC [C38A A64G C68G U69A], the self-cleavage was 0.18.

Turning to UAACAGGGGGCCACAGCAGAAGCGUUCACGUCGCAGCACCGGUCAGGUUCUGGUGAAUCUGCGAAUUCUGCUGUAUAUCCC [C38A U41G A47G U80C], the self-cleavage was determined as 0.26.

For the variant UAACAGGGGGCCACAGCAGAAGCGUUCACGUCGCAGCACCUGUCAGAUCCUGGUGAAUCUGCGAAUUCUGCUGUAUAUCAC [C38A U49C U80A], the self-cleavage is 0.13.

As for UAACAGGGGGCCACAGCAGAAGCGUUCACGUCGCAGCCACUGUCAGAUUCUGGUGGAUCUGCGAAUUCAGCUGUAUAUCUC [C39A A56G U69A], the self-cleavage is 0.14.
